# The whole screen tested about 71,000 compounds, of which about 1,800 (2.5%) were called active. Inconclusive means that the source gave no clear call. Such entries were picked first, then a sample of the others. The call rests on the fitted dose curve; in most records, active means well fitted activation curve with a large enough effect in the signal ratio, with a control signal flat (not every such curve was filed as active); inconclusive means small, poorly fitted or top-dose-only effect, or effect the other way, or a change in a side signal; inactive means flat fitted curve, though single readings scatter; the % refers to the signal ratio. Potencies of inconclusive entries are doubtful fits and often do not repeat.
# Test: Cell signaling CRE-BLA (Fsk stim); on activity change, negative = inhibition: % of control where 0% means no effect
# Conditions: CHO CRE-bla reporter (cAMP response element driving beta-lactamase), forskolin EC10, beta-lactamase ratio
# Procedure, shortened: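 CHO CRE-bla cells, overnight plating in Opti-MEM with 0.5% dialyzed FBS; cpd titration + EC10 NKH 477, 3 h 37 °C; CCF4 2 h RT; ex 405/em 460 vs 530 ratio → %Activity, AC50.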
# [1] = activity change, negative = inhibition: at 38.2 µM (top of the series) unless noted
# Potency means the concentration at half of the fitted maximal effect; tags describe the fitted curve by direction and shape.
compound,measurement,setting,value
Cc1onc(-c2ccccc2Cl)c1C(=O)NCCN1Cc2ccccc2C1=O,"activity change, negative = inhibition",[1],inconclusive: 0.679% [at 7.6 µM]
CCOC(=O)N1CCN(CC(=O)c2ccc3c(c2)CCN3)CC1,Potency,[1],"inconclusive: 3.16 µM [rising, single point]"
CS(=O)(=O)Nc1cccc(-c2ccc3ncnc(Nc4ccc(F)cc4)c3c2)c1,Potency,[1],"inconclusive: 12.6 µM [rising, partial curve]"
COc1ccccc1-c1nc(NCc2cccs2)c2ccccc2n1,"activity change, negative = inhibition",[1],inconclusive: 26.9%
COc1ccc(-n2c(SCC#N)nc3ccccc3c2=O)cc1,Potency,[1],"inconclusive: 10 µM [rising, single point]"
COc1ccc2[nH]c(C)c(CN3CCCCC3)c(=O)c2c1,Potency,[1],inactive
O=c1[nH]c2cc3c(cc2cc1CN(CC1CCCO1)S(=O)(=O)c1ccc(Cl)cc1)OCCO3 (centres undefined),Potency,[1],inactive
Nc1nc(Cn2nnc(-c3ccccc3Cl)n2)nc(N2CCOCC2)n1,Potency,[1],"inconclusive: 10 µM [rising, partial curve]"
N[C@@H](CSCc1ccccc1)C(=O)O,"activity change, negative = inhibition",[1],inactive: 6.56% [at 7.6 µM]
COc1ccccc1S(=O)(=O)n1cc(Cc2ccccc2)c(N)n1,"activity change, negative = inhibition",[1],inconclusive: 31.1%
CCCC1=C(C(=O)OCC)C(c2cc(Cl)cc(OC)c2OCC(=O)OCC)NC(=O)N1 (centres undefined),"activity change, negative = inhibition",[1],inconclusive: 27.2%
O=C(CSc1oc(-c2ccco2)nc1S(=O)(=O)c1ccc(Cl)cc1)NCC1CCCO1 (centres undefined),Potency,[1],inactive
Cc1cc(C2=CC(C)(c3cc(C)oc3C)Nc3nc(C(F)(F)F)nn32)c(C)o1 (centres undefined),"activity change, negative = inhibition",[1],inconclusive: -28.3%
COc1ccc(C2C(C#N)=C(N)Oc3n[nH]c(C)c32)cc1CN1CCN(c2ccc(F)cc2)CC1 (centres undefined),Potency,[1],inactive
c1ccc(-c2nc(-n3ccnc3)nc(-n3ccnc3)n2)cc1,Potency,[1],active: 1.26 µM
O=C(Nc1cccc(F)c1)N1CC2(CCN(C(=O)c3cnccn3)CC2)C1,"activity change, negative = inhibition",[1],inconclusive: -8.46%
CCOC(=O)Cn1c(=NC(=O)CSC(C)=O)sc2cc(OC)ccc21,"activity change, negative = inhibition",[1],inconclusive: -4.25%
Cc1cc(-c2ccccc2)nc2[n+]1CCN2C,"activity change, negative = inhibition",[1],inconclusive: -5.41%
OC1(c2cccc(C(F)(F)F)c2)CCN(c2ncnc3c2[nH]c2ccc(F)cc23)CC1,Potency,[1],"inconclusive: 2.51 µM [falling, single point]"
CC1(C)CC(=O)C(C=Nc2ccc(O)cc2)=C(O)C1,"activity change, negative = inhibition",[1],inconclusive: 27.5%
Cc1cccc(-c2nnc(SCc3nc4ccccc4[nH]3)n2Cc2ccco2)c1,Potency,[1],active: 2.51 µM
C=CCn1c(NC(=O)c2ccccc2Cl)c(C#N)c2nc3ccccc3nc21,Potency,[1],"inconclusive: 2.51 µM [rising, full curve]"
O=C(c1ccco1)N1CCN(S(=O)(=O)c2ccc(F)cc2)CC1,Potency,[1],inactive
Oc1c(C(c2cccs2)N2CCN(c3cccc(Cl)c3)CC2)sc2ncnn12 (centres undefined),Potency,[1],active: 12.6 µM
Cc1cc(NC(=O)CSc2nc(-c3cccs3)cc(C(F)(F)F)n2)no1,Potency,[1],active: 3.16 µM
CCC(C)(C(=O)NC1CCCC1)N(Cc1ccco1)C(=O)c1ccccn1 (centres undefined),"activity change, negative = inhibition",[1],inconclusive: 9.07%
Oc1ccc(/C=C\c2cc(O)cc(O)c2)cc1,Potency,[1],"inconclusive: 15.8 µM [falling, partial curve]"
same,"activity change, negative = inhibition",[1],inconclusive: -14.7%
Cc1cc(O)ccc1Nc1nc2ccccc2nc1Nc1ccc(O)cc1C,Potency,[1],inactive
O=C(NC1CCN(C(=O)NCc2ccccc2)CC1)c1ccco1,Potency,[1],inactive
Cn1c(NC(=O)c2ccc(F)c(F)c2)cc(=O)n(C)c1=O,Potency,[1],inactive
O=C(Cn1cnc2c(cnn2-c2ccc(F)cc2)c1=O)NCCc1ccccc1,Potency,[1],inactive
CCOc1ccccc1-c1nc(-c2cc3ccccc3nc2OC)no1,Potency,[1],"inconclusive: 12.6 µM [rising, partial curve]"
CCc1cccc(NC(=O)Cn2ncn3c(cc4ccccc43)c2=O)c1,Potency,[1],inactive
COc1ccccc1CNc1ncnc2ccc(-c3cccc(NS(C)(=O)=O)c3)cc12,Potency,[1],"inconclusive: 6.31 µM [rising, partial curve]"
O=C(CSc1nc2ccccc2c(=O)n1Cc1ccco1)NCc1ccco1,Potency,[1],inactive
COc1cccc(NC(=O)N2CCOCC2)c1,"activity change, negative = inhibition",[1],inactive: 14.6% [at 7.6 µM]
CC(C)CN(C(=O)COC(=O)c1cc2c(s1)CCC2)C1CCS(=O)(=O)C1 (centres undefined),Potency,[1],inactive
COc1cccc(-c2nc(NCCNC(C)=O)c3ccccc3n2)c1,Potency,[1],"inconclusive: 10 µM [rising, partial curve]"
CCOC(=O)c1cc2c(=O)n3ccccc3nc2n(CCOC)c1=NC(=O)C(C)(C)C,Potency,[1],active: 10 µM
COc1ccc2[nH]cc(CCNc3ncnc4ccc(-c5ccccc5OC)cc34)c2c1,Potency,[1],inactive
Cc1ccccc1NC(=O)CSc1nc2c(c(-c3ccco3)c1C#N)CCCC2,Potency,[1],inactive
CCOC(=O)c1sc(NC(=O)CCSC)nc1C,"activity change, negative = inhibition",[1],inconclusive: 28.5%
Cc1noc(C)c1S(=O)(=O)Nc1ccc(C(=O)N2CCc3ccccc3C2)cc1,Potency,[1],inactive
CCOC(=O)c1c(CC(C)C)csc1NC(C)=O,Potency,[1],"inconclusive: 15.8 µM [rising, single point]"
COc1ccccc1-c1nc(NCc2cnc(C)cn2)c2ccccc2n1,Potency,[1],inactive
COC(=O)CN(C)C1CC(=O)N(c2ccc(Cl)cc2)C1=O (centres undefined),Potency,[1],"inconclusive: 12.6 µM [rising, partial curve]"
Cc1nn(Cc2ccc(C(=O)Nc3ccc(C(=O)OC(C)C)cc3)o2)c(C)c1Cl,Potency,[1],"inconclusive: 6.31 µM [rising, partial curve]"
Cc1cc(C)nc(SCC(=O)Nc2cc(C)on2)n1,Potency,[1],inactive
N#Cc1cc(Sc2ccccn2)c(Sc2ccccn2)cc1C#N,"activity change, negative = inhibition",[1],inconclusive: -5.55% [at 7.6 µM]
c1cncc(-c2cc(-n3ccnc3)ncn2)c1,"activity change, negative = inhibition",[1],inconclusive: 26.9%
CCOC(=O)C1CCCN(Cc2nc(N)nc(Nc3ccccc3OC)n2)C1 (centres undefined),Potency,[1],inactive
CCOCCc1nnc(NC(=O)c2cccs2)s1,"activity change, negative = inhibition",[1],inconclusive: -3.32%
Oc1c(Cl)cc(CN(Cc2cc(Cl)c(O)c(Cl)c2)C2CCCCC2)cc1Cl,"activity change, negative = inhibition",[1],inactive: 9.34% [at 7.6 µM]
Cc1cc(C(=O)CSc2nc3ccccc3c(=O)[nH]2)c(C)n1C,Potency,[1],"inconclusive: 10 µM [rising, partial curve]"
COC(=O)c1cccc(NC(=O)c2nn(C(C)C)c(=O)c3ccccc23)c1,"activity change, negative = inhibition",[1],inconclusive: 20.3%
NC(=O)C1CCN(c2nc(-c3ccccc3)nc3ccccc23)CC1,Potency,[1],"inconclusive: 10 µM [rising, partial curve]"
CC(C)c1cc(C(F)(F)F)n2nc(C(=O)Nc3ccc4c(c3)OCO4)cc2n1,"activity change, negative = inhibition",[1],inconclusive: 27.5%
COc1ccc(NC(C)=O)cc1NC(=O)CSc1nnc(-c2ccccc2)n1N,Potency,[1],inactive
Cc1nc2sc(C(=O)O)c(N)c2c2c1COC(C)(C)C2,Potency,[1],"inconclusive: 25.1 µM [rising, single point]"
CCOC(=O)N1CCC(NC(=O)Cn2ncc3ccccc32)CC1,"activity change, negative = inhibition",[1],inconclusive: 14.9%
COc1ccc(C2CC(=O)N3CN(c4ccc(C)c(Cl)c4)CSC3=C2C#N)cc1 (centres undefined),Potency,[1],inactive
COCCn1c(SCC(=O)Nc2ccc(S(=O)(=O)N3CCOCC3)cc2)nc2ccccc21,Potency,[1],"inconclusive: 5.01 µM [falling, single point]"
Cn1c(=O)c2c(nc(CN3CCN(c4ccccc4F)CC3)n2CCN2CCOCC2)n(C)c1=O,"activity change, negative = inhibition",[1],inconclusive: -12.8%
CC1N=C2c3ccccc3N=C(SCc3cc(=O)n4cc(Cl)ccc4n3)N2C1=O (centres undefined),Potency,[1],"inconclusive: 7.94 µM [rising, partial curve]"
Cc1ccc(-c2nn(C)c(=O)c3ccccc23)cc1S(=O)(=O)NCCN1CCOCC1,Potency,[1],active: 7.94 µM
Cc1sc(NC(=O)c2oc3ccccc3c2C)c(C#N)c1C,Potency,[1],inactive
COC(=O)c1ccc(CNC(=O)COc2ccccc2Br)o1,Potency,[1],"inconclusive: 10 µM [rising, partial curve, poor fit]"
CC(C)Cc1nc2oc3c(NCC4CCCO4)ncnc3c2c2c1CCC2 (centres undefined),Potency,[1],"inconclusive: 2.51 µM [rising, full curve]"
COC(=O)c1c(-c2ccco2)csc1NC(=O)C1CC=CCC1C(=O)O (centres undefined),Potency,[1],"inconclusive: 10 µM [falling, partial curve]"
Cc1ccc2cccc(S(=O)(=O)NC3CCS(=O)(=O)C3)c2n1 (centres undefined),Potency,[1],inactive
c1cn(CCCNc2ncnc3sc4c(c23)CCC4)cn1,Potency,[1],inactive
CCOC(=O)NC(Nc1nc2ccccc2s1)(C(=O)OCC)C(F)(F)F (centres undefined),Potency,[1],"inconclusive: 12.6 µM [falling, single point]"
CCOC(=O)c1ccccc1NC(=O)c1ccccc1NS(C)(=O)=O,Potency,[1],"inconclusive: 12.6 µM [rising, partial curve]"
Cc1nc2ccc(C(=O)O)cc2c2c1CC(C)S2 (centres undefined),"activity change, negative = inhibition",[1],inconclusive: 2.24%
Cc1ccc(Cl)cc1N1CCN(C(=O)c2ccc(NS(=O)(=O)c3c(C)noc3C)cc2)CC1,Potency,[1],active: 2.51 µM
COc1cccc(Cn2c(=O)c(-c3ccc(Cl)cc3)nc3cnc(N4CCN(C)CC4)nc32)c1,Potency,[1],"inconclusive: 2.51 µM [rising, partial curve]"
COc1ccc(-c2nnnn2C)cc1S(=O)(=O)NCCc1ccccc1,Potency,[1],inactive
CCn1c(SCC(=O)Nc2ccc(S(N)(=O)=O)cc2)nnc1-c1cccc(OC)c1,Potency,[1],inactive
CC1=C(C(=O)Nc2ccc(F)cc2)C(c2ccc(C)o2)C2=C(CC(C)(C)CC2=O)N1 (centres undefined),Potency,[1],inactive
O=C(CN1CCN(c2ccccc2F)CC1)Nc1ccccc1F,"activity change, negative = inhibition",[1],inconclusive: -17.5%
CCN(CC)S(=O)(=O)c1ccc(C(=O)NCc2n[nH]c(=S)n2Cc2ccccc2)cc1,"activity change, negative = inhibition",[1],inconclusive: -9.14%
CCCCCCCCCCCCCCCC(=O)O[C@H](CC(=O)O)C[N+](C)(C)C,"activity change, negative = inhibition",[1],inconclusive: -21.6%
same,"activity change, negative = inhibition",at 38.2 µM (top of the series),inactive: -3.29%
